# Test results from the supplement of paper PMC8728848.
# Some of the results follow.
# Key:
# Assay in all cases: glycan array binding signal (z-score within array); higher = stronger binding
# Details in all cases: glycan notation: IUPAC condensed, linker removed
# [1] = target: Gal(b1-3)[Fuc(a1-4)]GlcNAc(b1-2)Man(a1-3)[Gal(b1-3)[Fuc(a1-4)]GlcNAc(b1-2)Man(a1-6)]Man(b1-4)GlcNAc(b1-4)[Fuc(a1-6)]GlcNAc
# In short: (§1)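 Glycan array data came from 3228 arrays in the Consortium for Functional Glycomics database, and only arrays with an available protein sequence were kept. Glycan names were put into IUPAC-condensed notation, and columns mapping to the same glycan were averaged. The binding signal is a within-array Z-score, averaged across arrays of one protein sequence run at different concentrations or buffers and across linkers. A negative Z-score can be read as non-binding.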
# [2] = target: Gal(b1-3)[Fuc(a1-4)]GlcNAc(b1-3)Gal(b1-3)[Fuc(a1-4)]GlcNAc
# In short: as §1
# [3] = target: Gal(b1-3)[Fuc(a1-4)]GlcNAc(b1-3)Gal(b1-4)GlcNAc
# In short: as §1
# [4] = target: Gal(b1-3)[Fuc(a1-4)]GlcNAc(b1-3)Gal(b1-4)[Fuc(a1-3)]GlcNAc
# In short: as §1
# [5] = target: Gal(b1-3)[Fuc(a1-4)]GlcNAc(b1-6)GalNAc
# In short: as §1
# [6] = target: Gal(b1-3)[GlcNAc(b1-6)]GalNAc
# In short: as §1
# [7] = target: Gal(b1-3)[Neu5Ac(a2-6)]GalNAc
# In short: as §1
# [8] = target: Gal(b1-3)[Neu5Ac(a2-6)]GlcNAc(b1-4)Gal(b1-4)Glc
# In short: as §1
# [9] = target: Gal(b1-3)[Neu5Ac(a2-6)]GlcNAc(b1-6)Gal(b1-4)Glc
# In short: as §1
# [10] = target: Gal(b1-3)[Neu5Ac(b2-6)]GalNAc
# In short: as §1
# Gal(b1-4)Gal = target: Gal(b1-4)Gal
# In short: as §1
# [11] = target: Gal(b1-4)GalNAc(a1-3)[Fuc(a1-2)]Gal(b1-4)GlcNAc
# In short: as §1
# [12] = target: Gal(b1-4)GalNAc(b1-3)[Fuc(a1-2)]Gal(b1-4)GlcNAc
# In short: as §1
# Gal(b1-4)Glc = target: Gal(b1-4)Glc
# In short: as §1
# Gal(b1-4)Glc6S = target: Gal(b1-4)Glc6S
# In short: as §1
# Gal(b1-4)GlcNAc = target: Gal(b1-4)GlcNAc
# In short: as §1
# [13] = target: Gal(b1-4)GlcNAc(a1-6)Gal(b1-4)GlcNAc
# In short: as §1
# Gal(b1-4)GlcNAc(b1-2)Man = target: Gal(b1-4)GlcNAc(b1-2)Man
# In short: as §1
# [14] = target: Gal(b1-4)GlcNAc(b1-2)Man(a1-3)Man(b1-4)GlcNAc(b1-4)GlcNAc
# In short: as §1
# [15] = target: Gal(b1-4)GlcNAc(b1-2)Man(a1-3)[Gal(b1-4)GlcNAc(b1-2)Man(a1-6)]Man(b1-4)GlcNAc(b1-4)GlcNAc
# In short: as §1
# [16] = target: Gal(b1-4)GlcNAc(b1-2)Man(a1-3)[Gal(b1-4)GlcNAc(b1-2)Man(a1-6)]Man(b1-4)GlcNAc(b1-4)[Fuc(a1-6)]GlcNAc
# In short: as §1
# [17] = target: Gal(b1-4)GlcNAc(b1-2)Man(a1-3)[Gal(b1-4)GlcNAc(b1-2)Man(a1-6)][Gal(b1-4)GlcNAc(b1-4)]Man(b1-4)GlcNAc(b1-4)[Fuc(a1-6)]GlcNAc
# In short: as §1
# [18] = target: Gal(b1-4)GlcNAc(b1-2)Man(a1-3)[Gal(b1-4)GlcNAc(b1-2)Man(a1-6)][GlcNAc(b1-4)]Man(b1-4)GlcNAc(b1-4)[Fuc(a1-6)]GlcNAc
# In short: as §1
binder,measurement,setting,value
"ECA (Erythrina cristagalli), P83410 (protein) VETISFSFSEFEPGNDNLTLQGAALITQSGVLQLTKINQNGMPAWDSTGRTLYTKPVHMWDSTTGTVASFETRFSFSIEQPYTRPLPADGLVFFMGPTKSKPAQGYGYLGVFNNSKQDNSYQTLAVEFDTFSNPWDPPQVPHIGIDVNSIRSIKTQPFQLDNGQVANVVIKYDAPSKILHVVLVYPSSGAIYTIAEIVDVKQVLPDWVDVGLSGATGAQRDAAETHDVYSWSFQASLPE",glycan array binding signal (z-score),[1],-0.026
same,glycan array binding signal (z-score),[2],-0.421
same,glycan array binding signal (z-score),[3],-0.274
same,glycan array binding signal (z-score),[4],-0.317
same,glycan array binding signal (z-score),[5],-0.191
same,glycan array binding signal (z-score),[6],-0.291
same,glycan array binding signal (z-score),[7],-0.193
same,glycan array binding signal (z-score),[8],-0.233
same,glycan array binding signal (z-score),[9],-0.259
same,glycan array binding signal (z-score),[10],-0.274
same,glycan array binding signal (z-score),Gal(b1-4)Gal,-0.627
same,glycan array binding signal (z-score),[11],-0.304
same,glycan array binding signal (z-score),[12],-0.137
same,glycan array binding signal (z-score),Gal(b1-4)Glc,-0.176
same,glycan array binding signal (z-score),Gal(b1-4)Glc6S,-0.089
same,glycan array binding signal (z-score),Gal(b1-4)GlcNAc,0.8
same,glycan array binding signal (z-score),[13],-0.372
same,glycan array binding signal (z-score),Gal(b1-4)GlcNAc(b1-2)Man,-0.339
same,glycan array binding signal (z-score),[14],-0.247
same,glycan array binding signal (z-score),[15],2.71
same,glycan array binding signal (z-score),[16],0.087
same,glycan array binding signal (z-score),[17],-0.519
same,glycan array binding signal (z-score),[18],-0.101
